Data reported in PubChem BioAssay AID1346428 (National Center for Advancing Translational Sciences (NCATS), 2018).
Where “and” joins values, the source holds several entries; their conditions need not be identical. Identical values can stand only once. About 1,200 (2.5%) of roughly 48,000 compounds were called active. About 2% were inconclusive and are not listed.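 The calls were made as follows: active = activation of at least 60% and not above a set upper limit (about 1 call in 100 departs from these limits); inconclusive = activation of 40% to 60%, or above that upper limit; inactive = activation under 40%.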 The list shows a part of the results.
Also: 0% is about no effect.

The molecules below were run against Probable G-protein coupled receptor 32 (Homo sapiens) (UniProt O75388) (assay: qHTS for Agonists of Human Resolvin D1 Receptor DRV1). Details: CHO-K1 GPR32 beta-arrestin PathHunter luminescence, 90 min; at 76.9 µM; stronger effect = higher value; zero percent set by DMSO-only wells.
Sequence of UniProt O75388 (O75388 whole entry, looked up, the tested form may be a part): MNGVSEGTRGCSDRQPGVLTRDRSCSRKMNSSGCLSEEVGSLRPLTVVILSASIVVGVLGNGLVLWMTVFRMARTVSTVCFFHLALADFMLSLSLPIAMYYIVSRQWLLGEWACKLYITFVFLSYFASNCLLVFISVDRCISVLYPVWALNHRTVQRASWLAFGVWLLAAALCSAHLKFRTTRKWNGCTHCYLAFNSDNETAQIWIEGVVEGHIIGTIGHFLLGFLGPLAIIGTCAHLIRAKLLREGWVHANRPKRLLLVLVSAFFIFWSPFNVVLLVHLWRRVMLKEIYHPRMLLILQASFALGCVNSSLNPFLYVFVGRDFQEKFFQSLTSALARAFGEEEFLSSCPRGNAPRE
How it was run: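 Agonism was scored as beta-arrestin recruitment to ProLink-fused GPR32 in stably transfected CHO-K1 cells, giving a chemiluminescent beta-Gal signal; compounds were incubated 90 min at 37 °C.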
CCN(CC)CCNC(=O)c1ccc2c(c1)N(Cc1ccccc1)C(=O)c1ccccc1S2=O (centres undefined) was tested, and the activation was inactive: -14.1%. For COc1ccc(-n2c(=O)c3sc4ccccc4c3n(Cc3ccccc3)c2=O)cc1, the activation was inactive: -4.64%. For CCSc1nc(=O)c2c(n1C)NC(=O)CC2c1ccc(O)cc1OC (centres undefined), the activation was inactive: -8.54%. CCc1ccc(OCC(=O)NCC(c2ccc(OC)cc2)N2CCOCC2)cc1 (centres undefined) was tested, and the activation was inactive: -16.6%. In the case of Cc1cccc(C)c1NC(=O)CN(C)S(=O)(=O)c1ccc2c(c1)n(C)c(=O)c(=O)n2C, the activation was inactive: -22.4%. For COc1ccc(C(=O)Nc2ccc3nc(SCC(=O)N4CCOCC4)sc3c2)cc1, the activation was inactive: -0.0952%. In the case of COC(=O)c1ccc(OC)c(Cn2c(=O)n(-c3ccc(C)cc3)c(=O)c3c2cnn3C)c1, the activation was inactive: -11.3%. In the case of COc1ccc(C2CC(=O)N(CC(=O)Nc3ccc(C(F)(F)F)cc3)c3ccccc3S2)cc1 (centres undefined), the activation was inactive: -7.11%. In the case of COc1cc(NC(=O)c2cc3nc(-c4ccccc4)cc(-c4ccccc4)n3n2)c(OC)cc1Cl, the activation was inactive: -0.0275%. For COc1cc2c(cc1OC)C(c1ccc(F)cc1)N(c1ccc(F)cc1)C(=O)C2 (centres undefined), the activation was inactive: -9.51%. With CC1CCN(c2nc3ccc(C(=O)NCc4ccc(Cl)cc4)cc3s2)CC1 the activation was inactive: -19.2%. In the case of O=C(Cn1c(=O)nc(-c2ccccc2)c2cc(Cl)ccc21)NCCCc1ccccc1, the activation was active: 94.2%. For CCc1nn(CC(=O)NC2CC2)c(=O)c2cc3ccccc3n12, the activation was inactive: -2.77%. For CCCCCC[C@@H]([C@@H](C)O)n1cnc2c(N)ncnc21, the activation was inactive: 10.6%. For Cn1cc(C(=O)NCc2ccccc2)c(=O)c2cc(S(=O)(=O)N3CCCCCC3)ccc21, the activation was inactive: -0.454%. With COc1cccc(CNC(=O)c2c3c(nc4ccccc24)C(=O)N(C2CCCCC2)C3)c1 the activation was inactive: -11.7%. For Cc1ccc(C)c(CSc2nc3ccncc3n2Cc2nc(-c3ccccc3Cl)oc2C)c1, the activation was inactive: -33.9%. Cc1ccccc1Oc1nc2c(c(=O)n(C)c(=O)n2C)n1Cc1ccc(Br)cc1 was tested, and the activation was inactive: 11.6%. O=C(Nc1ccc(OC(F)(F)F)cc1)NC1COc2ccccc2C1 (centres undefined) was tested, and the activation was inactive: 6.98%. In the case of CCCCc1ccc(Nc2ncnc3c2cnn3-c2ccc(C)cc2)cc1, the activation was inactive: 4.63%. CCC1CCCCN1C(=O)Cn1c(=O)n(CC2CCC(C(=O)NC)CC2)c(=O)c2sccc21 (centres undefined) was tested, and the activation was inactive: -17.1%. For CC(NC(=O)CSc1n[nH]c(-c2ccccc2)n1)c1nc2ccccc2n1C (centres undefined), the activation was inactive: -2.33%. With COc1cc(OC)c(NC(=O)c2cc(S(=O)(=O)N3CCCC3)cn2C)cc1Cl the activation was inactive: -8.43%. With Cc1ccc(S(=O)Cc2nc(-c3ccc(C(=O)NC(C)c4ccccc4)cc3)oc2C)cc1 (centres undefined) the activation was inactive: -7.15%. COc1ccc(N2CCN(Cc3nc4c(c(=O)[nH]c(=O)n4C)n3Cc3ccccc3)CC2)cc1 was tested, and the activation was inactive: -21.1%. For Cn1c(=O)c2sccc2n2c(CCC(=O)NCc3ccccc3)nnc12, the activation was inactive: -7.43%. COc1ccc(Cl)cc1S(=O)(=O)Nc1cccc(-c2ccc(N3CCOCC3)nn2)c1 was tested, and the activation was inactive: 12%. In the case of COC(=O)c1ccc(C(=O)OC)c(NC(=O)c2c(-c3ccccc3)c(-c3ccccc3)nn(C)c2=O)c1, the activation was inactive: -37.3%. For Cc1ccc2c(c1)nc(SCC(O)c1ccc(Br)cc1)n2C (centres undefined), the activation was inactive: -16.6%. COc1cc(CNCCSc2nnnn2C)ccc1OCc1c(F)cccc1Cl was tested, and the activation was inactive: 14.1%. With CCOC(=O)c1[nH]c(C)c(C(=O)NCc2ccc(F)cc2)c1C the activation was inactive: 11.4%. Cc1cccc(-c2nnc(SCCC(=O)O)o2)c1 was tested, and the activation was inactive: 34.8%. With COc1ccc(N2CCN(c3oc(/C=C/c4cccc(OC)c4)nc3C#N)CC2)cc1 the activation was inactive: -50.5%. For CCc1ccc(CNC(=O)C2CCN(c3nnc(-n4c(C)ccc4C)s3)CC2)cc1, the activation was inactive: -21.2%. With Cc1cccc(NC(=O)CN2C(=O)CCc3ccccc32)c1C the activation was inactive: -7.28%. CCOc1ccc(CCNC(=O)c2cnc3c(-c4ccccc4)c(C)nn3c2C)cc1OCC was tested, and the activation was inactive: -5.23%. COc1ccccc1CNC(=O)C(C)n1c(=O)cc(C(F)(F)F)c2c(C)nn(C)c21 (centres undefined) was tested, and the activation was inactive: -0.0193%. In the case of O=[N+]([O-])c1ccc(C(c2sc3nc(-c4ccco4)nn3c2O)N2CCC3(CC2)OCCO3)cc1 (centres undefined), the activation was inactive: -3.15%. CC(C)c1ccc(OCC(=O)Nc2cc(-c3nc4ncccc4o3)ccc2Cl)cc1 was tested, and the activation was inactive: 27.6%. In the case of Nc1ccn(C2CO[C@H](CO)O2)c(=O)n1 (some centres undefined), the activation was inactive: 4.95%. In the case of COc1cc(C2CC(=O)Nc3cc4c(cc32)OCCO4)cc(OC)c1O (centres undefined), the activation was inactive: 40.8%. With CCCCN(CCCC)c1nc(-c2ccccc2)nc2ccccc12 the activation was active: 110%. For COc1ccc(C(Cl)=C(c2ccc(OC)cc2)c2ccc(OC)cc2)cc1, the activation was inactive: -22%. In the case of O=c1[nH]c2cc(C(F)(F)F)c(N3CCOCC3)cc2n(CP(=O)(O)O)c1=O, the activation was inactive: -13.2%. With CCCCC(=O)Nc1ccc(OCc2cc(=O)n3ccc(C)cc3n2)cc1 the activation was inactive: -3.71%. For Cc1oncc1C(=O)Nc1ccc(C(F)(F)F)cc1, the activation was inactive: 14% and inactive: -5.48%. For COc1ccccc1C(=O)Nc1c(C(=O)Nc2ccc(C)cc2)oc2ccccc12, the activation was inactive: -2.75%. For CC1(c2ccccc2)CC(C)(C)N(C(=O)c2ccccc2Cl)c2ccccc21 (centres undefined), the activation was inactive: -0.994%. With CCN(C(=O)c1cc2c(Cl)nc3ccc(C)cc3c2s1)c1cc(OC)ccc1OC the activation was inactive: -9.44%. With CCC(=O)Nc1ccc(C)cc1-c1nc2ccccc2n(Cc2ccccc2)c1=O the activation was inactive: -5.06%. Cc1oc(-c2cccc(Cl)c2)nc1CSCC(=O)O was tested, and the activation was inactive: -17%. NC(C(=O)N[C@@H]1C(=O)N2C(C(=O)O)=C(Cl)CS[C@H]12)c1ccccc1 (some centres undefined) was tested, and the activation was inactive: -7.31%. In the case of CCOC(=O)c1c(N)sc2c1CCN(Cc1ccccc1)C2, the activation was inactive: 13.3%. With COc1ccc(NC(=O)C2CCCN2S(=O)(=O)c2ccc3c(c2)CCCC(=O)N3)cc1Cl (centres undefined) the activation was inactive: -5.72%. For COc1ccc(C(=O)Nc2ccc(-c3cc(C(F)(F)F)nn3-c3ccccc3)cc2)cc1OC, the activation was inactive: -6.9%. With COc1ccc(-c2nn(-c3ccc(F)cc3F)c3c2cnc2ccc(F)cc23)cc1 the activation was inactive: -8.15%. CC(=O)N1CCCc2cc(S(=O)(=O)NCc3ccc(OC(C)C)cc3)ccc21 was tested, and the activation was inactive: 9.46%. With CCOc1ccc(-c2nonc2NC(=O)c2oc3cc(Br)ccc3c2C)cc1 the activation was inactive: -11%. In the case of N#Cc1ccccc1NC(=O)C(=O)NCC(c1cccnc1)N1CCN(c2ccccc2)CC1 (centres undefined), the activation was inactive: -3.3%. Cc1cccc(C(=O)Nc2cccc(C(=O)OCc3cc(=O)n4nc(C5CC5)sc4n3)c2)c1 was tested, and the activation was inactive: -12.4%. For CCN1CCN(C(=O)c2ccc3c(c2)N(Cc2cc(C)ccc2C)C(=O)c2ccccc2S3(=O)=O)CC1, the activation was inactive: -23.5%. Cc1ccc(OCC(=O)Nc2ccc(-c3nc4ccc(C)cc4o3)cc2)cc1 was tested, and the activation was inactive: 0.206%. For CCOc1ccc(C(=O)Nc2ccc3nc(SCC(=O)N4CCOCC4)sc3c2)cc1, the activation was inactive: 4.47%. In the case of CCCSCCCNC(=O)CN1C(=O)COc2ccc(S(=O)(=O)N3CCCCCC3)cc21, the activation was inactive: -14%. For O=C(NCCc1ccccc1)c1cnc2sc(N3CCOCC3)nn2c1=O, the activation was inactive: 1.02%. With CCOC(=O)c1c(C)oc2nc(C)nc(NCCc3ccc(S(N)(=O)=O)cc3)c12 the activation was inactive: 8.52%. In the case of CCOc1ccccc1Nc1ccc2cc(S(=O)(=O)N3CCCCC3)ccc2n1, the activation was inactive: -26.6%. For COc1ccc(CCC(=O)NCc2ccc3c(c2)CCN3C(=O)c2cccc(C)c2)cc1, the activation was inactive: 11.4%. In the case of CCCOc1ccc(CNC(=O)C2CCN(c3nn4c(=O)cc(C)nc4s3)CC2)cc1, the activation was inactive: -47.3%. With O=C(Nc1ccc(F)cc1F)C1CCCN1S(=O)(=O)c1cccc2nsnc12 (centres undefined) the activation was inactive: -4.68%. For Cc1cc(NC(=O)CN(c2cccc(C)c2C)S(=O)(=O)c2ccccc2)ccc1Br, the activation was inactive: -1.67%. In the case of CCOc1ccc(C(=O)c2cn(CC(=O)Nc3ccc(C)c(C)c3)c3ccc(OCC)cc3c2=O)cc1, the activation was inactive: 10.7%. In the case of CCOC(=O)[C@H](CCc1ccccc1)N[C@@H](C)C(=O)N1Cc2ccccc2C[C@H]1C(=O)O, the activation was inactive: -67.6%. With CCOC(=O)CSc1ncnc2c1c(-c1ccccc1)cn2-c1ccc(OC)cc1 the activation was inactive: 3.59%. In the case of CCS(=O)(=O)c1nc(S(=O)(=O)c2ccc(C)cc2)c(NCc2ccccc2Cl)s1, the activation was inactive: -25.5%. For COc1ccccc1NC(=O)C1CCN(c2ncnc3c2nc2n3CCCCC2)CC1, the activation was inactive: -2.74%. In the case of COc1cc2c(cc1OC)C(COc1ccc(C(C)C)cc1)N(C(=O)COc1ccccc1)CC2 (centres undefined), the activation was inactive: -15.6%. With COc1ccc(N2CC(NC(=O)c3ccc(S(=O)(=O)N4CCOCC4)cc3)CC2=O)cc1 (centres undefined) the activation was inactive: -2.62%. With COc1ccc(OCC(=O)N2CCN(C(=O)c3ccc(OC)cc3)CC2)cc1 the activation was inactive: 13%. COc1ccc(NC(=O)CC2C(=O)N(c3ccc(C)cc3)C(=O)N2C2CCCC2)cc1 (centres undefined) was tested, and the activation was inactive: -25.2%. In the case of CCOc1ccc(Nc2nc(Nc3ccc(OCC)cc3)nc(N3CCOCC3)n2)cc1, the activation was inactive: -11.2%. In the case of COc1ccc(CCNC(=O)CCCn2c(=O)c3cccn3c3ccc(F)cc32)cc1OC, the activation was inactive: -24.3%. In the case of CC(NC(=O)c1cc2ccccn2n1)c1ccccc1 (centres undefined), the activation was inactive: -1.81%. In the case of Cc1ccc(C)c(CN2C(=O)C(O)(c3c[nH]c4ccccc34)c3ccccc32)c1 (centres undefined), the activation was active: 84.3%.
